Read counts are not given, so values of variants with three or more changes are uncertain.
B1: LINE1-mini (parent)
chain: GGCAGAGCUCAACACAGCGUGGCAAAGUGGCUGUGGCUAGACUGCC

Variants of: B1
Experiment: self-cleavage, relative activity (ratio to wild type); higher = more cleavage; in vitro, sequencing; the parent is a self-cleaving ribozyme

Variant | self-cleavage
GGCAGAGCUCAACACAGCGUGGCAAAGUGGCUGUCGCUAAACUGAC | 0.07
GUAAGAUCUCAACACAGCGUGUCUUAGUGGCUGUGGCUAGACUGCC | 0.08
GGCAGCGCUCAACACACGGUGGCAAAGUGGAUGUGGCUAGACUGCC | 0.04
GGCAGAGAUCAACACAGCGUGGCAAAGUGGUUGUGGCUCUACUGUC | 0.01
GGUAGAGCUCAACACAGCGUUGUAAAGUGGCUGUGGCUAGCCUGCC | 0.21
GGCAGACCUCAACACAGCGAGGCAAAGUGGCUGCGGCUAGACUACC | 0.04
GGCAGAGAUCAUCAUAGCGUGGCAAAGUGGAUGUGGCUAGACUGCU | 0.07
GCCAGAGCUCAGCACAGCGUGCCAAAGUGGCUGUGGCUAGACUACC | 0.25
GGCAGAGCUCAACACUGCGUGGCACAGUAGCUGUCGCUAGAGUGCC | 0.05
GGCAGAGCUCAACACAGCGACGCAAAGUGGCAGAGGCUAGACUGCC | 0.01
GGCAGACCUCAAAAAAGGGUAGCAAAGUGGCUGUGGCUAGACUGUA | 0.02
GGCAGAGCUUAACACAGCGUGUCUAAGUGGCUGUUGCUAGACUGCC | 0.03
GGCAGAGCUCAACACAGAGUGGCAGACUGGCUGUGGCUAGACUGCC | 0.01
GGCAGAGCUAAAGACAACGUGGCAAGGUGGCUGUGGCUAGACAGCC | 0.01
GGCAGAGUUCAACACGGCGUGGCAAAGUGGCUGUGGCUAGUCUGCC | 0.61
GGCAGAGCUCAACAUAGCGUGGCAAAGUGGCUGUGGUUAGCCUGCC | 0.03
GGCAGAGCCCAAAAAAGCGUGGCAAAGUGGCUGUGGCUAGACUGCC | 0.02
GGCAGAGCUAAACACAGCGUGGGAAAGUGGCGGUGGCUAGACUGCC | 0
GGCAGAGCUCAACACCUCGUUGCAAAGUGUCUGUGGGUAGACUGCC | 0.01
GGCAGAGUUCAACACUGCGUUGCAAAGUGGCUGUGGCUAGACUGCC | 0.03
GGCAGAUCUCAACACAGCGUGGCAAAGUGGGUGUGGCUAGACUGCG | 0.06
GGCAGGGUUCAACACAUCGUGGCAAAGUGGCUGUGUCUAGACUGCC | 0.03
GGCAUAGCUCAAUACAGCGUGGCAAAGUGGCUGUGGCUAGACGGCC | 0.11

Variant | self-cleavage
GGCAGAGCUCAACACAGCGGGGCAAAGUGGCUGUGAUUACACUGCC | 0.13
GGCAGAGCUCUACACAUCGUGGCAGAGUGGCUGUGGCAAGACUGCC | 0.01
GGGAGAGCUCAACACAUCGUGGAAAAGUGGCUGUGGUUAAACUGCC | 0.2
GGCAGAGCUCAAAACGGCGUGGCAAAGUGGCUGUGGCUAGACUGCU | 0.04
GGCAGAGCACAACACAACGUGGUCAAGUGGCUGUGGCAAGACUGCC | 0.1
GGCAGAGCUCAACACAGCGUGGCAAAGUGGCUUUGGGUUGAUUGCC | 0.05
GGCAGAGCUCAACAGAUCGUGGCAAAGUGGCUGUGGUUAGACUGCC | 0.06
GGCAGAGCACAACACAGCGAGGCAAAGUGGCUGUGGAUAGACUGCC | 0.09
GGCAGAGCUCAACACAGCGUGGCAAAGUGGUUCUGGCUAGACUACC | 0.11
GGCAGAGCUUAACACAGCGUUGGAAUGUGGCUGUGGCUAGACUGCC | 0.24
GGCAUAGCUCAACACAGCGUGGCAAAGUGGCUGUUGCUUGACUGCC | 0.08
GGCAGAGUUCAACUCAGCGUGGCAAAGUGGCUGUGGCUGGACUGCC | 0.04
GGCAGAGCUCAACACAGAGUGGUAAAGUGGCUGUGGGUAGACUGCC | 0.05
GGCAGAGCUAACCACAGAGUGGCCAAGUGGCUGUGGCUAGACUGCC | 0.01
AGCAGAGCUCAACACAGAGUGGCAAAGUUGCUGUAGCUAGACUGCC | 0.09
GGCAGAGCUCAACACAGCGUGGUAAAGUAGCUGUGGCUACACUGCC | 0.06
GGCAGAGCUCAACACAGCGUGGCAAAGUGCCUGUGGUUCGACUGCC | 0.08
GUCAGAGCUCAACACAGCGUCGCAAAGUGGCUGUGGCUCGACUGCC | 0.02
GGCAGAGCUCAAGACAGGGUGGCACAGUGGCUGUGGCUAUACUGCC | 0.02
GGCAGAGCUCAACAUAGCGUGGAAAAGUGGCUGUGGCUAGGCUGCC | 0.34
AGCAGAGCUAAAGACAGCGUGGCAAAGUGGUUUUGUCUAGACUGCC | 0.04
GGCAUAGCUCAACACAGCGUGACAAAGAGGCUGUGGCUAGACUGGC | 0.02
GGCAGAGCACAACGCAGCGUGGCAAAGUGGUUGUGGCUAGAUUGCC | 0.01

Variant | self-cleavage
GGCACAGCUCAACACAGCGCGGCAAAGAGGCUGUGGCUAGACUGUA | 0.04
GCCAGAGCUGAACGCAGCGUGGCAAAGUGGCUGUGGCUAGACUGCA | 0
GGCAGAGCUCAACGCAGCGUGCCCAAGUGGCUUCGGCUAGACUGCC | 0.03
GGCAGAGCUCAACGCAGCGUGGCACAGUGGCUGUGGCUAGACUUCC | 0.03
GGCAGAGCUCAAGAAAGCGUAGCAAGGUGGCUGUGGCUAGACUGCC | 0.12
GGCAGAGCUCAACACAGCGUGGCGAAGUGGCUAGGGCUAGACCGCC | 0.05
GGCAGAGCUCAACACAGCGUGGCUAAUUGGCUGUGGAUAAACUGCC | 0.02
AGCAGAGCUCAACACAGCGUGGCAAAGUGUCUGUUGCUAGACUGCC | 0.24
GGAAGAGCUCAACACAGCGUGGCAAAGUCGCUGUGGCAUGACUGCC | 0.24
GGCAGAGCUUAACACAGUGGGGCAAAGUGACUGUGGCUAGACUGCC | 0.05
GGCAGAGCAGAACACAGGGUGGCAAAGUGGAUGUGGCUAGACUGCC | 0.02
GGCUGAGCUCAACACAGGGUGGCAGAGUGGCUGUGGCUAGACAGCC | 0.11
GGCAGAGCUCAACACAGCGUGGCAAAGUGGUUAGGGCGACACUGCC | 0.02
GGCAGAGCUCAACACAGCGUGGCAAGGUGGCUGUGGCUAGAGAGCC | 0.01
GGCAGAGCUCAACACAGCGUGGCAUAGUGGCUGAGGCUAAACUGCC | 0
GGCAGAGCUGAACACAGCUUGGCAAAGUGGAUGUGGCUAGACUGCC | 0
GGCAAAGCUCAACACAGCGUGGCAUAGUGGCUGUGGCUAGACUUUC | 0
GGCAGCGCUCAAAGCAACGUGGCAAAGUGGCUGUGGCUGGACUGCC | 0.08
GGCAGAGCUCAACACAGCGUCGCUAUGUGGCUGUGGCUAGACUGCC | 0.99
GGCAGAGCUCAAUACAGCGUGGCAAAGUGGAUGUGGCUAGACCGCC | 0.03
GGCAGAGCACAACACAGCGUGGCAAACUGGCUGUGCCUAGACUGCC | 0.17
GGCUAAGCUCAACACGGCGAGGCAAAGUGCCUGUGGCUAGACUGCG | 0.01
GACAGAGCUGAACACAGCGUGGCAAAGGGGCUGUGGCUAGACUGCC | 0.07

Variant | self-cleavage
GGCAGAGCCCAACAUAGCCUGGCAAAGUGGCUGUGGCUAGACUGCA | 0.03
GUCAGAGCUCAACACAGCGUGGCAAAGUGGUUGUUGCUAGACUGCC | 0.01
GGCCGAGCUCAACACAGCGUGACAAAGUGGCUGUGGCUACACUGCC | 0.14
GGCAGAGCUGACAACAGCGUGGCGAAGUGGCUUUGGCUAGACUGCC | 0.02
GGCUGAGCUCAACACAGCGUGGCACAUUGGCUGUGGCUACACUGCC | 0.01
GGCAGAGCUCUACACAGCGUGGCAGAGUGACUGUGGCUAGACUGUC | 0
GGCUGAGCUCAACACUGCGUGGCAAAGUGGCUGUGCCUAGACUGCC | 0.07
GGCCGAGAUCAACAAAGCGUGCCAAAGUGGCUGUUGCUAGACUGCC | 0.37
GGCAGAGCUCAACACAGAGUGGCAAAGUGGGUGUGGCAAGACUGCC | 0.11
GGCUUAGCUCAACACAGCGUCGCAAAGUCGCUGUGGCUAGACUGCC | 0.01
GGCAGAGCUCAACACAGGGUGGCAAAGUGGGUGGGGCUAGACUGCC | 0.02
AGCAGAGCUCAACAAAGCGUGGCAUAGAGGCUGUGGCUAGUCUGCC | 0.06
GGCAGAGCCCAACACAGCGUGGCAAAGUGGCUGUGGCGAGACCGCC | 0.01
GGUAGAGCUCAACACAGCGUGGCGAAGUGGCUGUGUCUAGACUGCC | 0.69
GGUAGAGCUCACCACAGCGUGGCAAAGUGGCUGUGGCUAGAUUGCC | 0.05
GGCAGAGCUCAACACAACGUGUCAAAGUAGCUGUGGCUAGACUGCC | 0.21
GGCAACGCUAAACACAGCGUGGCAAAGUGGCUGUGGCUAGACUGCC | 0.12
GGCAGAGCUCAUCAGAGCGUGGCAAAGUUGCUGUGGCUAGCCUGCC | 0.05
GGCAGAGUUCUACACAGCGCGGCAAAGUGGCUGUGACUAGACUGCC | 0
GCCAGAGCUCAACACAUCGUGUCAAAGUGGCUGUGCCUAGACUGCC | 0.01
GGCAGAGGUCAACACAGCGAGGCAAAGUGGCGGUUGGUAGACUGCC | 0.04
GGCAGAGCUAAAUAGAGCGCGGCAAAGUGGCUGUGGCUAGACAGCC | 0.01
GGCAGAGCUCAACACAGCGUGCUACCGUGGCUGUGGCUAGACUGCC | 0.86

Variant | self-cleavage
GGCAGAGCUCAAGACAGCUUGGCAAAGUGACUGUGGCUAGACUGCC | 0.01
UGCAGAGCUCAACACAGCGUCGCAAAGUAGCUGUGGCUAGACUGCG | 0.24
GGCAGAGCUCAACGCAGCGUGGCAAAGUGGCUCUGGAUAGACUACC | 0.01
GGCAGAGCUGAUCACAGCGCGGCAAAGUGUCUGUGGCUAGACUGCC | 0.05
GGCAGAGCUCCACACAGCGUGGCAAACUGGCUGUGGCCAGACUGCC | 0.01
GCCAGAGCUCAUCACAGCGUGGCAAAGUGGCUGGGGAUAGACUGCC | 0.01
GCCAGAGGUCAACACAGAGUGGAAAAGUUGCUGUUGCUAGACUGCC | 0.05
GGCAGAGCUCAACUCAGCGUGGCCAAGUGGCUGUGGCUAGACUUCC | 0.02
GGCAGAGCGCAACACAGCGUGGCAAAGUGGCAGUGGCUAGAUUGCC | 0.08
GUCAGAGCUCAACACAGCGUGGCAAAGUGGCUGUUCCUAGACUACC | 0.01
GGGAGAUAUCAACACAGCGUGGCAAGGUGGCUGUGGCUAGACUGCC | 0.97
GGGAGAGCUCAACACAGCGUGGCAUAGUGGCUGUGGCUAGAAUGCC | 0.19
GGCAGAGCUCUACAAGGCGAGGCAAAGUGGCUGUGGCUAGACCGCC | 0.01
GGCAGAGCUCAACACAGCGUGGCAAAGUGGCUGUGUUUAGACUGCG | 0.02
GGCAGAGCUCAACACAGCGAGGCAAAGUGGCUAUGGCCAGACUGCC | 0.05
GGCAGAGCUCUACACAGCGUGGGAAAGUCGUUGUGGCUAAACUGCC | 0
GCCAGAGCUCAACACAGCUUGGCAAGGUGGCUGUGGCUAGACUGCC | 0.04
GGCAGAGCUCUACACAGCGUGGCAAAGUCGCUGUGGAUAGACUGCC | 0
GUCAGAGCUCAACACAGCGUGUGAAAGUGGCUGAGGCUAGACUCCC | 0.09
GGAGGAGCUCAACUCAGCGUGGCAAAGUGGCUGUGGAUAGACAGCC | 0.07

Reference: the RNAGym collection of RNA variant scans (doi:10.7554/elife.90254)
